According to publication PMC4336329 (PLoS ONE, 2015):
In all, about 310,000 compounds went through this assay and about 2,200 (0.71%) showed an effect of 50% or more. Effects have a minus sign here. The list shows a part of the results.

Target: human ether-à-go-go-related gene (hERG) potassium channel (human, UniProt Q12809)
Assay: primary screen, population patch clamp on CHO cells stably expressing hERG

human ether-à-go-go-related gene (hERG) potassium channel, sequence (Q12809 whole entry, looked up): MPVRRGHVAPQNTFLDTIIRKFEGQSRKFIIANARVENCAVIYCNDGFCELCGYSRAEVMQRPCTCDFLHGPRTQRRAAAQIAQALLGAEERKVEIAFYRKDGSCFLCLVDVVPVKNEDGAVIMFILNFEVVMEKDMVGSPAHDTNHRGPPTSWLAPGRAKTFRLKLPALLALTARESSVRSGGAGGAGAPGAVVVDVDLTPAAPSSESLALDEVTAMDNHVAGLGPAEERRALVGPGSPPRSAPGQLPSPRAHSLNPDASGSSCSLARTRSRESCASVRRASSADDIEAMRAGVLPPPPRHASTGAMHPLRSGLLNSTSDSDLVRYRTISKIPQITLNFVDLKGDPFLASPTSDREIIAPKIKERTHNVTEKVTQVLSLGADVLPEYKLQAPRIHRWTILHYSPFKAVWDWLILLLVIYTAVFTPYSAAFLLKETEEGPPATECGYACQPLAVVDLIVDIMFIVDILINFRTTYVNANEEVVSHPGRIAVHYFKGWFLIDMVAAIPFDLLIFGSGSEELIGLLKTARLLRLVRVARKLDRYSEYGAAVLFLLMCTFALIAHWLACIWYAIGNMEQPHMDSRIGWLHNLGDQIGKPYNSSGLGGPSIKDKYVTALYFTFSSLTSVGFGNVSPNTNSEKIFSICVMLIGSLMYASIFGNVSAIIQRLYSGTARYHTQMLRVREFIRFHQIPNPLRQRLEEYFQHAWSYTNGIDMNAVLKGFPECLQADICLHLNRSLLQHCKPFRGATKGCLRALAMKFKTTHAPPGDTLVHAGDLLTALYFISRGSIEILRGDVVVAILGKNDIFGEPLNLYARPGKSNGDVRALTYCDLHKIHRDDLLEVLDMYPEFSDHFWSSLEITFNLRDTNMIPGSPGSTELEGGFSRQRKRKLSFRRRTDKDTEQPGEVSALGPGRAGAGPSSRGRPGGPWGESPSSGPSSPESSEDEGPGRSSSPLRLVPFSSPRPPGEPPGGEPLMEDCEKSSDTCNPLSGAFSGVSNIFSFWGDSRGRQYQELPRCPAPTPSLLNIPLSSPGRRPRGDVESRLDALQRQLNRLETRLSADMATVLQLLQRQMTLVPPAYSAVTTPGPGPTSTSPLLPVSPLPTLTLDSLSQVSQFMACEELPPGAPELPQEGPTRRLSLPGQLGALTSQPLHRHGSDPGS

Row | Structure (SMILES) | hERG current change (%, negative = inhibition) at 1uM
1 | Cc1nn(C(C)C(=O)NCc2ccccc2F)c(=O)c2nn(-c3ccccc3)c(C)c12 (stereo not shown) | 19.7%
2 | O=C(O)c1ccccc1C(=O)Nc1ccc(Br)c(C(F)(F)F)c1 | 2.61%
3 | CN1CCN(CC#CCC(O)(c2ccccc2)c2ccccc2)CC1.Cl | 14.4%
4 | CC(CC(=O)Nc1ccc(F)cc1F)S(=O)(=O)c1ccc2c(c1)NC(=O)CO2 (stereo not shown) | 9.86%
5 | Cc1ccccc1SC1CCN(Cc2nc(C3CC3)no2)CC1 | -1.23%
6 | COc1ccc(C2N=C(N)N=C(N)N2c2ccc(C)cc2)cc1.Cl (stereo not shown) | 4.38%
7 | CCOC(=O)CNC(=O)N1CCCC(CNS(=O)(=O)c2cccs2)C1 (stereo not shown) | 23.3%
8 | CCN(CC)CC.CN1C=CC=C/C1=C1\SC(=S)N(CC(=O)O)C1=O | 12.5%
9 | O=C(Nc1cccc2ccccc12)NC1CCCc2ccccc21 (stereo not shown) | 9.99%
10 | COc1cc(O)c(C(CC(=O)N2CCOCC2)c2ccc(N(C)C)cc2)c(OC)c1 (stereo not shown) | 18%
11 | Cc1ccc(C(=O)CSc2cc(C)[nH]c(=O)n2)cc1 | 20.4%
12 | O=C(Nc1cccc([N+](=O)[O-])c1)c1ccc2nsnc2c1 | -1.33%
13 | O=C(c1ccc(S(=O)(=O)N2CCc3ccccc3C2)cc1)N1CCCCC1 | 4.45%
14 | COc1cc(/C=C\C(=O)OCn2nnc3ccccc3c2=O)cc(OC)c1OC | 0.354%
15 | Cn1cccc1Cc1nnc(SCC(=O)N2CCCCCC2)n1-c1ccc(F)cc1 | 6.19%
16 | COCCCNC(=O)C1CCN(c2nc(C)cc(C)n2)CC1 | 10.8%
17 | O=C(c1ccc(O)cc1)c1ccc(Cl)cc1 | -3.35%
18 | COc1ccccc1/C=C1\Oc2cc(OC(=O)N3CCOCC3)ccc2C1=O | 11.4%
19 | Cl.O=C(CN1C2=NCCCN2c2ccccc21)c1ccc(Cl)cc1Cl | -82.1%
20 | COc1cc(OC)cc(C(=O)NCCCCNC(=O)c2cc(OC)cc(OC)c2)c1 | 7.39%
21 | COc1cc(/C=C/c2nc3ccccc3s2)cc(OC)c1O | 5.74%
22 | NC(=O)C(Cc1ccccc1)NC(=O)C12CC3CC(CC(C3)C1)C2 (stereo not shown) | 9.92%

Row | Structure (SMILES) | hERG current change (%, negative = inhibition) at 1uM
23 | Cc1ccc(C(=O)N/C(=C/c2ccccc2)C(=O)NCC2CCCO2)cc1 (stereo not shown) | -6.64%
24 | COc1ccc(NC(=O)/C(=C\c2cccs2)NC(=O)c2ccco2)cc1 | 3.21%
25 | CC1=CC(=C(C#N)C#N)C=C(C)N1CCC(C)C | 2.09%
26 | CC(=O)CCc1c[nH]c2c(C(=O)O)cccc12 | 8.57%
27 | C/C(=N\OCC(=O)Nc1ccc2c(c1)OCCO2)c1ccc2c(c1)OCCO2 | -1.22%
28 | Cc1cccc(N2CCN(C(=O)c3cccc(N4CCCC4=O)c3)CC2)c1C | 9.67%
29 | CN(C)C(=O)C1CC(=O)OC12CCCCC2 (stereo not shown) | 10%
30 | Cc1nc(NCCc2ccccc2F)c(C#N)c(C)c1[N+](=O)[O-] | 13.1%
31 | COc1ccc(NC(=O)c2oc3ccc(S(=O)(=O)N4CCOCC4)cc3c2C)cc1 | 3.1%
32 | CN(C)S(=O)(=O)N1CCN(c2ccccc2)CC1 | -0.132%
33 | Oc1c(Br)cc(C=Nc2ccc3nc(-c4ccccc4)[nH]c3c2)c(O)c1Br | 9.27%
34 | Nc1ncc(-c2ccccc2)c(-c2ccc(O)cc2O)n1 | -4.1%
35 | CCN(C(=O)/C=C/c1ccc(OC)cc1)C1CCCCC1 | 11.4%
36 | Cc1ccc(-c2csc(N(CCCN(C)C)C(=O)c3ccco3)n2)cc1.Cl | -36.6%
37 | Cc1[nH]c2ccc(F)cc2c1CCN(Cc1cccnc1)C(=S)Nc1ccc(F)cc1 | 6.75%
38 | CC(C)=CCC/C(C)=C/COc1ccc2ccc(=O)oc2c1 | -3.75%
39 | S=C(NCCc1ccccc1)N/N=C/c1ccc(Cl)cc1 | 18.5%
40 | COCCCNC(=O)c1ccc(CNS(=O)(=O)c2ccc(NC(C)=O)cc2)cc1 | 10.5%
41 | Cc1c(C(=O)N/N=C/c2ccccn2)nnn1-c1nonc1N | 6.85%
42 | CCOC(=O)Cc1csc(NC(=O)c2cc(=O)c3ccccc3o2)n1 | 5.21%
43 | Cc1ccc(S(=O)(=O)NC(Cc2ccccc2)C(=O)NN)cc1 (stereo not shown) | 13.6%
44 | Cc1ccc2c(c1)C1CN(C)CCC1N2C(=O)COc1ccc(N(C)C(=O)c2ccccc2)cc1 (stereo not shown) | 4.6%

Row | Structure (SMILES) | hERG current change (%, negative = inhibition) at 1uM
45 | CCSc1nc2c(c(=O)[nH]1)C(c1ccncc1)C(C(=O)OC)=C(C)N2 (stereo not shown) | 6.7%
46 | COC(=O)c1c(N2C(=O)CCC2=O)sc2c1CCCC2 | 7.34%
47 | Cn1ncc([N+](=O)[O-])c1C(=O)N/N=C/c1cccc([N+](=O)[O-])c1 | 15.4%
48 | COc1cc(Cl)cc(NC(=O)CCN2CCN(C)CC2)c1 | -20.8%
49 | COc1ccc(/C=C/C2=NN(Cc3ccccc3)C(=O)CC2)cc1 | 3.98%
50 | Cc1cc(Nc2ccccc2C(=O)O)n(-c2cccc(Cl)c2)n1 | 10.5%
51 | CC1=C(C(=O)Nc2ccccc2)C(c2ccccc2)N2C(=O)CSC2=N1 (stereo not shown) | 3.28%
52 | CCOc1ccc(Br)cc1S(=O)(=O)N1CCC(C(N)=O)CC1 | 10.5%
53 | Cc1cc(NS(=O)(=O)c2ccc(NC(=O)COc3ccccc3C(C)(C)C)cc2)no1 | 17.5%
54 | Cc1ccc(C2(C)NC(=O)N(CC(=O)Nc3ccccc3C(=O)N3CCCCC3)C2=O)cc1 (stereo not shown) | 7.18%
55 | CC1CCCC1/C(=N/O)c1ccccc1 (stereo not shown) | 6.65%
56 | Cc1ccccc1NC(=O)c1ccc2snnc2c1 | 1.6%
57 | COc1c(F)c(F)c(C(=O)O)c(Nc2ccc(C)cc2C)c1F | 9.99%
58 | COc1cc2nc(C3CCC3)n(NC(=O)C3CCCC(OC)C3)c(=O)c2cc1OC (stereo not shown) | 2.13%
59 | O=C(Nc1ccc(N2CCOCC2)cc1N1CCOCC1)c1ncoc1-c1cccc(F)c1 | 7.93%
60 | COCCNC(=O)c1ccc2c(=O)n(CCOC)c(=O)[nH]c2c1 | 11.4%
61 | COC(=O)Cc1ccc(NC(=S)Nc2ccc(N3CCOCC3)cc2)cc1 | -0.428%
62 | CCn1c(SCc2ccccc2Cl)nc2ccccc21 | 6.94%
63 | Cn1c(N2CCOCC2)c(C=O)c2ccccc21 | 6.08%
64 | COCCNc1ncnc2c1cnn2Cc1ccccc1Cl | 6.61%
65 | CCN(CC)S(=O)(=O)c1ccc(C)c(NC(=S)N2CCN(Cc3ccc4c(c3)OCO4)CC2)c1 | 8.56%
66 | COC(=O)c1cccc(NC(=O)CCN2C(=O)C3CC=CCC3C2=O)c1 (stereo not shown) | 4.43%

Row | Structure (SMILES) | hERG current change (%, negative = inhibition) at 1uM
67 | CC(C)n1c(=O)c(C=Nc2ccc(Cl)cc2)c(O)n(Cc2ccco2)c1=O | 8.62%
68 | COC(=O)c1ccc(CNC(=O)COC(=O)c2ccc(N(C)C)cc2)cc1 | 18.1%
69 | CSc1nc(C)c(C(=O)Nc2ccccc2)c(C)c1C#N | 14.7%
70 | O=C(COC(=O)/C=C/c1cccs1)NC1CCCCC1 | 7.77%
71 | Cc1cc(C(=O)Nc2ccccn2)cs1 | -1.26%
72 | Cc1cc(C(=O)CSc2n[nH]c(-c3ccccc3F)n2)c(C)n1Cc1cccs1 | 11.6%
73 | CC(=O)OC1(c2ccccc2)CCN(C)C(C)C1C.Cl (stereo not shown) | 5.62%
74 | CCCn1c(-c2cc(OC)c(OC)c(OC)c2)nc2nc3ccccc3nc21 | -7.87%
75 | CCOC(=O)c1c(C)oc2c(CN3CCN(C)CC3)c(Br)c(OC)c(O)c12.Cl | -4.01%
76 | C/C(=N\NC(=O)c1ccc(Br)cc1)c1cccnc1 | 15%
77 | CC(C)CN1C(=O)c2ccccc2C1(O)Cc1ccccc1 (stereo not shown) | 12.5%
78 | CC12C(=O)N(c3ccccc3)C(=O)C1C(c1ccccc1)N1CCCN12 (stereo not shown) | 14.6%
79 | CCOC(=O)c1sc(/N=C/c2c(C)[nH]n(-c3ccccc3)c2=O)c(C#N)c1C | -1.18%
80 | NC(=O)CSc1nc2cc([N+](=O)[O-])ccc2n1-c1cccc(C(F)(F)F)c1 | -22%
81 | C#CCOCCOCCOCCNc1nc(N2CCN(C(=O)[C@H](Cc3ccc(O)cc3)n3cc([C@@H](N)CC(C)C)nn3)CC2)nc(N2CCN(C(=O)[C@H](Cc3ccc(O)cc3)n3cc([C@@H](N)CC(C)C)nn3)CC2)n1.Cl | -1.2%
82 | Cc1cccc(NC(=S)NC(C)CCc2ccccc2)c1 (stereo not shown) | 9.48%
83 | CCOC(=O)CNC=C(C(=O)OCC)C(=O)OCC | 3.34%
84 | O=C(C(c1ccccc1)c1ccccc1)N1CCN(CCN2C(=O)c3cccc4cccc(c34)C2=O)CC1 | 6.84%
85 | O=C(Nc1cccnc1)c1ccc(Br)c(S(=O)(=O)N2CCCC2)c1 | 11.9%
86 | COc1ccc(Sc2cnn(-c3ccccc3)c(=O)c2Cl)cc1 | 7.29%
87 | CCCOc1ccc(C2=NNC(c3cccs3)=Nc3ccc(OC)cc32)cc1 | 14.4%
88 | COc1cc(NC(=O)c2cc3cccc(OC)c3o2)cc(C(=O)Nc2cccc(C(F)(F)F)c2)c1 | 14.6%
